Measurements from PubChem BioAssay AID540267 (National Center for Advancing Translational Sciences (NCATS), 2011).
Among all 340,000 compounds or so, about 530 (0.16%) were called active. The inconclusive results got no clear call from the source; some entries with a clear call stand among them for comparison. Rule as the data show it: active = activity change below about -80%; inconclusive = between about -30% and that limit; inactive = weaker than that. Peptide text beside a SMILES is read from it. * marks the point of attachment. Boc = CC(C)(C)OC(=O)*
% is scaled to controls: 0 for no effect and ±100 for the full control effect.

Assay: Small Molecules that selectively kill Giardia lamblia: qHTS;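 also: parasites exposed to compound for two days anaerobically before the ATP read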
Details: Giardia lamblia trophozoite viability; at 7.66 µM; active compounds read low
Procedure, shortened: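 Viability, read as ATP luminescence: trophozoites at 100 cells/well, compound added, 48 hrs anaerobic at 37 deg C, then 15-30 min room-temperature development before reading.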
In the case of CC(OC(=O)c1cc2ccccc2o1)C(=O)Nc1ccc(N2CCOCC2)cc1 (centres undefined), the activity change is reported as inconclusive: -35.5% [inhibitor].
With C=C1CC2(CC(c3ccccc3)OC(c3ccccc3)C2)OC1=O (centres undefined) the activity change was inactive: 7.82%.
With O=C(NCCCn1ccnc1)C(=O)NCC(c1cccnc1)N1CCN(c2ccc(F)cc2)CC1 (centres undefined) the activity change was inconclusive: -38.3% [inhibitor].
For COc1cc(C2Oc3ccccc3C=C2[N+](=O)[O-])cc(OC)c1OC (centres undefined), the activity change was inconclusive: -43.5% [inhibitor].
In the case of Cc1ccc(OCC(=O)N(Cc2cccc(Cl)c2)C2CCS(=O)(=O)C2)cc1C (centres undefined), the activity change is reported as inconclusive: -50.2% [inhibitor].
With Cc1sc2ncnc(N(C)Cc3ccco3)c2c1C the activity change was inactive: -14.2%.
In the case of CCOC(=O)CSc1nc2ccccc2n2cnnc12, the activity change is reported as inactive: -2.2%.
With O=C(NCCO)c1cc2c(s1)CCC2 the activity change was inactive: -11.4%.
With Cc1ccc(-n2ncc3c(N4CCCC(C)C4)ncnc32)c(C)c1 (centres undefined) the activity change was inactive: -6.93%.
With O=C(Nc1ccc(N2CCN(Cc3ccccc3F)CC2)cc1)c1ccc([N+](=O)[O-])o1 the activity change was active: -96.3%.
For Cc1ccc(S(=O)(=O)N2CCC(C(=O)N[C@@H](C)C(=O)NC3CCCCC3)CC2)cc1, the activity change was inconclusive: -34.3% [inhibitor].
For O=c1c(-c2cc3ccccc3o2)[n+]([O-])c2ccccc2n1OCc1ccccn1, the activity change was inconclusive: -36.4% [inhibitor].
With COc1cccc(/C=C2\Oc3ccc(O)cc3C2=O)c1O the activity change was inconclusive: -46.8% [inhibitor].
For COC(=O)[C@@H]1CCCN1C(=O)[C@@H](NC(=O)OC(C)(C)C)C(C)C (Boc-Val-Pro-OMe), the activity change was inconclusive: -34% [inhibitor].
For COc1ccccc1OCC(=O)Nc1nonc1NC(=O)COc1ccccc1OC, the activity change was inconclusive: -33.1% [inhibitor].
For CCOC(=O)CNC(=O)c1ccc(C)cc1, the activity change was inactive: -9.95%.
For O=C(N/N=C/c1ccc([N+](=O)[O-])s1)c1cccnc1, the activity change was inconclusive: -71.5% [inhibitor].
With Cc1ccc(-c2[nH][nH]c(=O)c(=O)c2N=Nc2ccccc2)cc1 the activity change was active: -92.5%.
For Cc1ccc(/C(N)=N/OC(=O)Oc2ccccc2)cc1, the activity change was inconclusive: -30.7% [inhibitor].
In the case of COc1ccc(-c2n[nH]c(=S)n2-c2ccc(C)cc2C)cc1, the activity change is reported as inactive: -3.64%.
With CCN(CC(=O)NCc1ccc(F)cc1)C(=O)/C=C/c1cc(OC)ccc1OC the activity change was inconclusive: -32.8% [inhibitor].
With COc1ccc2c(-c3ccc(OCCN4CCOCC4)cc3)c(-c3ccccc3OC)sc2c1 the activity change was inconclusive: -50.2% [inhibitor].
In the case of CCOc1ccc(C(=O)Nc2ccc3[nH]ncc3c2)cc1, the activity change is reported as inconclusive: -66.6% [inhibitor].
With CCOc1ccccc1NC(=O)C1=C(C)NC(=S)NC1c1cccs1 (centres undefined) the activity change was inactive: 22.6%.
In the case of O=C(COC(=O)c1ccc(Br)o1)Nc1nc2c(F)c(F)c(F)cc2s1, the activity change is reported as inconclusive: -31.9% [inhibitor].
In the case of Nc1ccc(-c2nc3ccc(-c4nc5ccccc5o4)cc3[nH]2)cc1, the activity change is reported as inactive: -1%.
In the case of CCN(C(=O)COC(=O)/C=C/c1c(C)nn(-c2ccccc2)c1C)c1c(N)n(Cc2ccccc2)c(=O)[nH]c1=O, the activity change is reported as inactive: -0.925%.
In the case of CC(C)(C)[C@H](N)C(=O)N[C@H]1CCC2C3CC=C4C[C@@H](O)CC[C@]4(C)C3CC[C@@]21C (some centres undefined), the activity change is reported as inconclusive: -50.3% [inhibitor].
For O=C(c1cccnc1)N1CCN(c2ccc3ccccc3n2)CC1, the activity change was inactive: -19.2%.
In the case of CCCc1ccc(-c2cc(C(=O)N/N=C/c3ccc([N+](=O)[O-])o3)c3ccccc3n2)cc1, the activity change is reported as active: -94.5%.
With COc1ccc(CN(C(=O)CSc2nnc(-c3ccc(OC)c(OC)c3)o2)c2ccc(F)cc2)cc1 the activity change was inconclusive: -54.2% [inhibitor].
With COc1ccc(S(=O)(=O)N2CCN(C(=O)c3ccc(=O)[nH]n3)CC2)cc1OC the activity change was inactive: 10.1%.
In the case of CCCn1c(SCC(=O)c2c(N)n(C3CC3)c(=O)[nH]c2=O)nnc1-c1ccncc1, the activity change is reported as inactive: 2.87%.
With Cc1ccc(NC(=O)NCCCN2CCCC2=O)cc1Cl the activity change was inactive: 16.2%.
For CCN(CC)c1ccc(C(=C2C=CC(=[N+](CC)CC)C=C2)c2ccc(S(=O)(=O)O)cc2S(=O)(=O)[O-])cc1, the activity change was inconclusive: -35.9% [inhibitor].
For COC(=O)c1cc(=O)nc2sc3ccccc3n12, the activity change was inconclusive: -33.8% [inhibitor].
With N#C/C(=C/c1cccnc1)c1ccccc1 the activity change was inactive: 22.3%.
In the case of CCC(=O)Nc1cccc(C2=NOC3(C2)C[C@@H](C(N)=O)N(C(=O)C(c2ccccc2)c2ccccc2)C3)c1 (some centres undefined), the activity change is reported as inactive: 8.71%.
In the case of COc1ccc(NC(=S)N2CCC(C(=O)c3ccc(F)cc3)CC2)cc1, the activity change is reported as inconclusive: -37.2% [inhibitor].
In the case of CCc1ccc(NC(=O)N[C@H](C(=O)O)C(C)CC)cc1 (some centres undefined), the activity change is reported as inconclusive: -38% [inhibitor].
With Cc1ccc(NC(=O)c2ccc3c(c2)OCCO3)cc1 the activity change was inconclusive: -35.7% [inhibitor].
With O=C(Cc1ccc(NC(=O)C2CCCN(C(=O)C3CCCC3)C2)cc1)Nc1cccc(C(=O)N2CCCCC2)c1 (centres undefined) the activity change was inconclusive: -33.2% [inhibitor].
In the case of CCOCC(=O)OCC(=O)NC12CC3CC(CC(C3)C1)C2, the activity change is reported as inconclusive: -32.2% [inhibitor].
For c1ccc(-c2cnc(CSc3ncnc4sccc34)o2)cc1, the activity change was inactive: -5.18%.
For CCC(=O)N1CCN(c2ccc(Cl)cc2NC(=O)c2ccc([N+](=O)[O-])o2)CC1, the activity change was active: -101%.
With COc1ccc([C@@H]2[C@@H]3C(=O)N(C(C)(C)C)C(=O)[C@@H]3[C@]3(C)C(=O)N(c4ccc(C)cc4)C(=O)N23)cc1 the activity change was inconclusive: -31.6% [inhibitor].
In the case of CN1CCN(C(=O)C2CCN(S(=O)(=O)c3ccccc3[N+](=O)[O-])CC2)CC1, the activity change is reported as inconclusive: -35.6% [inhibitor].
In the case of CCCCC(=O)Nc1nn(CC(C)C)c2nc3ccccc3cc12, the activity change is reported as inactive: -2.63%.
For CCOC(=O)N1C/C(=C\c2ccccc2)C(=O)/C(=C/c2ccccc2)C1, the activity change was inconclusive: -32.9% [inhibitor].
